Results reported in the Bradley open melting point set (2014).

SMILES | melting point
C=CC=CC [1,trans-3-pentadiene] | -87 °C
CC(C)(C)c1ccc(O)cc1 [4-tert-butylphenol] | 100 °C
CC(=O)N(C)C [N,N-Dimethylacetamide] | -20 °C

The next lines start with the values.

melting point | SMILES
-20 °C | CC(=O)N(C)C [N,N-dimethylacetamide]
-20 °C | CC(=O)N(C)C [n,n-dimethylacetamide]
